Results from the supplement of paper PMC11417369.
± gives the standard deviation of the averaged measurements. This is one part of the list.

Test system: PfAP2-EXP AP2 domain (GST-tagged)
Experiment: gcPBM binding intensity (ln(normalized median fluorescence intensity)); higher = stronger DNA binding
Summary of the method: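 An Agilent 4 × 180k array carrying primer-extended double-stranded 36-bp intergenic genomic probes and negative controls received GST-tagged P. falciparum DNA-binding domains expressed in E. coli, about 25 μg on average, for 1 h. The binding buffer contained 1× PBS, 1% milk, 0.2 mg/ml BSA, 0.5% salmon testes DNA and 0.03% Triton X-100. Binding intensity is the top Masliner-normalised natural-log median intensity across replicate spots of either probe orientation, read after Alexa488 anti-GST antibody staining and a 488 nm scan.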

Row | Sequence | gcPBM binding intensity (ln)
1 | AACACCCATGGACACACACACATATATATATATATA [CACACA_site5809] | 10.1 ± 0.51
2 | ATTTATTTTAGTAAAGCACACGTGTAAAATATATCT [CACACA_site4820] | 9.07 ± 0.41
3 | ACAATAAAATATGGCACACATATATATATATATTTA [CACACA_site3] | 8.43 ± 0.34
4 | TTATTACATATAAAGGAAAATAGCATCTAGATTAAA [XGTACX_negctrl_site435] | 8.45 ± 0.35
5 | TCTTTTTTGAACTAGCGTACATGAAAATATTTATAG [XGTACX_site7359] | 8.51 ± 0.33
6 | TTTTTATTTATATATAAGGAAAATGCGGTATATATT [CACACA_negctrl_site1770] | 8.59 ± 0.42
7 | AAAAAAAAAAAAAAAAAATACATATACATTTGTGCA [CACACA_negctrl_site1431] | 8.66 ± 0.11
8 | AAAAAAAAAAAAAACACACACACACCCAAATACATA [CACACA_site708] | 8.63 ± 0.43
9 | TTTTTTCTTTTCAAGGTGCTTTATAAGAAAAAGGGA [GTGCAC_site9858] | 8.38 ± 0.18
10 | AGTATTATATTTTCTTGTACACATGTAAAATACCTC [XGTACX_site1359] | 8.95 ± 0.39
11 | TATTTTATCATTTGCACACGCACACCCACATAAAAA [CACACA_site354] | 8.83 ± 0.42
12 | TATATTAAAACAAGCACACAATCGCATAATATCCTT [CACACA_site3210] | 8.41 ± 0.51
13 | AAAAAAAAAAAAAAAACACACATATATGTATATATA [CACACA_site3276] | 8.28 ± 0.5
14 | CAATTACGCAGGAATGCACACAATAATAAAAAAAAT [CACACA_site3513] | 8.77 ± 0.43
15 | ATATATATATATATATGTACATATTTTTTATTTTAT [XGTACX_site5761] | 10.1 ± 0.5
16 | ATATGTTACTTTACATAAAGAAGAAGAAGAAGAAAA [CACACA_negctrl_site985] | 8.59 ± 0.37
17 | TATTATTCAAATAAAAGAAAAATATATATATTATAT [GTGCAC_negctrl_site273] | 8.3 ± 0.41
18 | TCCCCCTTTTTTTGATTTTTATCTTAATTCTAAAAG [GTGCAC_negctrl_site541] | 8.51 ± 0.39
19 | TTTCAAAAAGGAAGAAAAAAAAAAAAAAAAAATATA [XGTACX_negctrl_site514] | 8.22 ± 0.55
20 | TTTTTTTTTTGTAATACACACCACTATATGTTATTT [CACACA_site5087] | 8.76 ± 0.38
21 | AAACATTTAAATGGAAACACAGAAAAATGAAAAATG [CACACA_negctrl_site457] | 9.14 ± 0.5
22 | ATATATATATATACATGTACATATATACATTATATT [XGTACX_site936] | 9.99 ± 0.45
23 | ATGTTATATTTTTTTATACACACTGGAATATATAAA [CACACA_site215] | 8.57 ± 0.45
24 | ATTATTATTGTCAAATGTACAAGCTAATAATTTTTA [XGTACX_site7167] | 8.23 ± 0.35
